Assay results published in the supplement of paper PMC3334620.
The full ranking holds about 33,000 sequences; the median of “E-score (-0.5 to 0.5)” is about -0.021, and the highest 2% start at about 0.32. This is one part of the list.

Molecular target: T1, Zap1 (UniProt P47043)
T1 sequence: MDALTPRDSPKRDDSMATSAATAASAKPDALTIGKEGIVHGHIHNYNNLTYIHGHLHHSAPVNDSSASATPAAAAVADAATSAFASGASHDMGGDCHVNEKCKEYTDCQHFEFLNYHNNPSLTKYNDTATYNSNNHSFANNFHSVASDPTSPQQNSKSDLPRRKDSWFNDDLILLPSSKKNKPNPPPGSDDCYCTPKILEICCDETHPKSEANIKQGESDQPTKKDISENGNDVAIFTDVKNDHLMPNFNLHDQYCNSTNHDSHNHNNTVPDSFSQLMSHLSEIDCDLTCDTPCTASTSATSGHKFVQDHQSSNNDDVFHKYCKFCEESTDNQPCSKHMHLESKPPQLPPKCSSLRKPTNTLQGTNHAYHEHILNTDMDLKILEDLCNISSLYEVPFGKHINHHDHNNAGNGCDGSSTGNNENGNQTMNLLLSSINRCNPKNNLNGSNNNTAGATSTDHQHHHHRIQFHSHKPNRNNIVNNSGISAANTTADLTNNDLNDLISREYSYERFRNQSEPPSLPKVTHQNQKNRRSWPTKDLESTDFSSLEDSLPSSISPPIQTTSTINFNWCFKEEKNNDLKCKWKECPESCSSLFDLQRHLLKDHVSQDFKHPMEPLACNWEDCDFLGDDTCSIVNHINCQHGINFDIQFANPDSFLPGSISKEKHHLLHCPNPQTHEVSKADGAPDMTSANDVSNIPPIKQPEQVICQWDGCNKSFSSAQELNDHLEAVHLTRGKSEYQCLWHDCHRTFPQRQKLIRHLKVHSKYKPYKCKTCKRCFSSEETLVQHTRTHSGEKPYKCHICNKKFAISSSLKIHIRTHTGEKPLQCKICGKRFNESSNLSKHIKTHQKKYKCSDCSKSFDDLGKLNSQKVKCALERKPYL
Assay: PBM E-score (8-mer binding enrichment) (E-score (-0.5 to 0.5)); higher = stronger / more preferred TF binding; most listed sequences are background and not binding sites
Settings: protein concentration: 200 nM; construct: GST-full length
Method in brief: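 Yeast transcription factors, full-length or as DNA-binding domains, were expressed with a GST tag using PURExpress in vitro transcription/translation. At about 100-200 nM they were applied to universal all-10-mer Agilent arrays, double-stranded by primer extension on fresh or once-stripped slides. Fluorescent anti-GST detected bound protein, and masliner normalised the scans. E-scores for ungapped eight-base words, pooled with reverse complements, came from the Universal PBM Analysis Suite.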

| Sequence | PBM E-score |
| --- | --- |
| CAGTATTA | 0.153 |
| AATTGACC | 0.171 |
| CTATCCCC | -0.284 |
| CGCACTAG | 0.0423 |
| CGCTCTAG | -0.202 |
| AGGTTCCC | 0.122 |
| CAGGACGA | -0.112 |
| AAACTGCA | 0.00332 |
| AGAGCTAT | -0.113 |
| ACCGGAAG | 0.0591 |
| CCTACTGC | -0.231 |
| CATCCCTA | -0.134 |
| GTCTACAC | -0.0912 |
| AACTAACA | 0.153 |
| AATATCCG | 0.123 |
| GTCAGTAA | -0.0455 |
| AACCACTC | 0.289 |
| AGTAACCA | 0.387 |
| CGAGCGAC | -0.234 |
| AAGCATCT | -0.198 |
| CCCTATCA | -0.0341 |
| ACCTATGA | 0.17 |
| ACAATTGT | 0.0739 |
| CGCGTTTC | -0.0748 |

| Sequence | PBM E-score |
| --- | --- |
| AGCGGTGC | -0.176 |
| GATATTAC | 0.134 |
| AATCGTAT | -0.0933 |
| AGCGGCAC | -0.168 |
| CTAGGCTA | -0.0397 |
| CATGCAGA | 0.0731 |
| AGGTGTAG | -0.129 |
| CGAGTAAA | 0.0265 |
| AAATATTC | 0.157 |
| GGGTAACC | 0.46 |
| AAATAGAA | -0.0601 |
| GTCTGGGA | 0.006 |
| CCCTTGGC | 0.00076 |
| CGATTTAG | 0.105 |
| GGCACTAC | -0.143 |
| AAGTCGGT | -0.219 |
| GTTCGTTA | 0.109 |
| GCGCTAAA | 0.0289 |
| CGGTTGAG | -0.00869 |
| GAGTCGCC | -0.307 |
| GGTACTGA | 0.163 |
| ACTATTCC | 0.109 |
| ATGTGCGG | -0.0642 |
| TGCTGGAA | -0.189 |

| Sequence | PBM E-score |
| --- | --- |
| GGCCGAGA | 0.0129 |
| ACGCCAAC | -0.16 |
| ACCTTGCC | -0.043 |
| GTTACTGA | 0.171 |
| GGCGTTGA | -0.126 |
| CAACACAG | -0.0159 |
| AGAACACG | 0.0336 |
| AACGCGTA | -0.165 |
| CCAAGTGC | -0.0804 |
| GACCCGGA | 0.118 |
| CATACCCG | 0.304 |
| GACATGGC | -0.168 |
| GGAATCAA | 0.103 |
| ACACGCCC | -0.209 |
| GAGTACAA | 0.0653 |
| ATAGTGAA | -0.0126 |
| CGGACAAC | 0.129 |
| CCCGAGCA | -0.298 |
| CGAACGGA | -0.0657 |
| AATAATGT | 0.0206 |
| CACATGAC | -0.0975 |
| AAAAGCTG | -0.218 |
| ACAAACAT | 0.0357 |
| CCAGAGTC | 0.0266 |

| Sequence | PBM E-score |
| --- | --- |
| GTAACGCA | 0.0614 |
| ACACGGGT | 0.14 |
| ATTCAGTA | 0.0794 |
| CCAGCTAA | -0.0304 |
| ATGTCTTA | -0.00067 |
| GTGATGAA | 0.0445 |
| GACCGGCA | -0.144 |
| ACCTACAC | 0.0316 |
| TCCCAAGA | -0.0673 |
| GTAATGCA | -0.157 |
| ACCTCTCG | 0.166 |
| AGGCAGTG | -0.0761 |
| ATGTAGCG | -0.153 |
| ATAGAGGA | -0.186 |
| AGGCCGCC | -0.196 |
| ACCGGCCA | 0.0682 |
| GAGATCCC | -0.147 |
| AATGGATC | -0.021 |
| ACCTCAGA | 0.214 |
| GAGATAAA | 0.0437 |
| TGTGGTAA | 0.216 |
| AGTCACAT | -0.132 |
